{"source": "PubChem BioAssay AID485294", "about": "(National Center for Advancing Translational Sciences (NCATS), 2010)", "note": "The campaign covered roughly 370,000 compounds. About 150 (0.041%) were called active. Inconclusive means that the source gave no clear call. Such entries were picked first, then a sample of the others. Calls follow the shape of the dose curve; as a rule, active = well fitted inhibition curve with a large enough effect; inconclusive = small, poorly fitted or top-dose-only effect; inactive = flat fitted curve, though single readings scatter. No potency is given beside an inconclusive call; the fits are too rough. Potency is read from the fitted curve at half-maximal effect; tags tell the direction and shape of the fitted curve."}
{"target": "Beta-lactamase (Escherichia coli (strain K12)) (UniProt P00811)", "sequence (P00811 whole entry, looked up)": "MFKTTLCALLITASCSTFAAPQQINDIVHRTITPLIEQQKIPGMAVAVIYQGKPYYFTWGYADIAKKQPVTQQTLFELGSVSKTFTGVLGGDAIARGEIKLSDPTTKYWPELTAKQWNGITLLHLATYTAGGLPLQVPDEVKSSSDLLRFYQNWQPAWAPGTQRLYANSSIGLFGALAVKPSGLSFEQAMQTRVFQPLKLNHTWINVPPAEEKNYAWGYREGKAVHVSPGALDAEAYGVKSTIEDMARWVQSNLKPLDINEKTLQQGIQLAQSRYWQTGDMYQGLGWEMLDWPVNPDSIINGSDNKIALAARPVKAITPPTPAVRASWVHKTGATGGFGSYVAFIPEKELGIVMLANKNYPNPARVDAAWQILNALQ", "test": "qHTS Inhibitors of AmpC Beta-Lactamase (assay with detergent); also: nearly all actives have a fitted effect of over 25% in size", "settings": "AmpC hydrolysis of nitrocefin, absorbance 480 nm, 0.01% Triton; series mostly up to 114 µM", "in_short": "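AmpC (5.3 nM in the dispensed reagent) in 20 mM phosphate pH 7.0 with 0.01% (detergent screen) or 0.0001% Triton X-100 was preincubated with compounds for 15 min at room temperature. Nitrocefin was then added from an 800 uM solution, and hydrolysis was followed at 480 nm.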"}
{"smiles": "COc1ccc(-c2cc3ccc(OCC(C)=O)cc3oc2=O)cc1OC", "Potency": "inconclusive [inhibitor, partial curve, poor fit]"}
{"smiles": "CC(=O)NC(Cc1cccc(F)c1)C(=O)NC1CCN(C(=O)Nc2ccccc2)CC1", "note": "(stereo unspecified)", "Potency": "inconclusive [inhibitor, full curve, poor fit]"}
{"smiles": "CCCCCCCC/C=C\\CCCCCCCC(=O)NCCO", "Potency": "inconclusive [inhibitor, full curve, poor fit]"}
{"smiles": "O=C(O)c1ccc(NC(=O)c2cccc(N3C(=O)C4C5CCC(C5)C4C3=O)c2)cc1", "note": "(stereo unspecified)", "Potency": "inconclusive [inhibitor, full curve]"}
{"smiles": "Cc1cccc(C)c1NC(=O)CN(C)C(=O)/C=C/c1cccs1", "Potency": "inactive"}
{"smiles": "O=c1[nH]c2ccccc2nc1-c1ccc(Cl)cc1", "Potency": "inconclusive [inhibitor, single point]"}
{"smiles": "CC1(C)Cc2cccc(OCC(=O)N3CCN(c4ccccc4Cl)CC3)c2O1", "Potency": "inconclusive [inhibitor, full curve, poor fit]"}
{"smiles": "Cc1cc(C)cc(OCC(=O)O/N=C(\\N)c2cccnc2)c1", "Potency": "inactive"}
{"smiles": "c1csc(-c2nc3ccccn3c2NC2CCCCC2)c1", "Potency": "inconclusive [inhibitor, partial curve]"}
{"smiles": "CCCOc1ccc(C(=O)CCN2CCN(C(=O)OCC)CC2)cc1", "Potency": "inconclusive [inhibitor, single point]"}
{"smiles": "O=C(O)CCc1nn2c3ccccc3n(CCN3CCCCC3)c2nc1=O", "Potency": "inconclusive [inhibitor, full curve, poor fit]"}
{"smiles": "O=C(Nc1nnc(S(=O)(=O)N2CCN(c3ccc(F)cc3)CC2)s1)c1ccccc1", "Potency": "inconclusive [inhibitor, single point]"}
{"smiles": "COc1ccc(-c2nc(=S)c3c(n2CCN2CCOCC2)CC(C)(C)OC3)cc1", "Potency": "inconclusive [inhibitor, full curve, poor fit]"}
{"smiles": "O=C1CCCC(O)=C1C1C2=C(CCCC2=O)Oc2ccccc21", "note": "(stereo unspecified)", "Potency": "inconclusive [inhibitor, partial curve, poor fit]"}
{"smiles": "Cc1ccc(C)c(S(=O)(=O)N2CCN(C(=O)Cn3[nH]c(=O)c4ccccc4c3=O)CC2)c1", "Potency": "inconclusive [inhibitor, single point]"}
{"smiles": "CCCCN(C)S(=O)(=O)c1ccc(C(=O)Nc2nnc(C3=COCCO3)o2)cc1", "Potency": "inactive"}
{"smiles": "Cc1ccccc1NC(=S)NC(=O)COc1ccccc1C", "Potency": "inactive"}
{"smiles": "CCOC(=O)C1CCCN(CC(=O)Nc2c(C(=O)OC)[nH]c3ccc(C)cc23)C1", "note": "(stereo unspecified)", "Potency": "inconclusive [inhibitor, full curve, poor fit]"}
{"smiles": "O=C(COC(=O)C1=Cc2ccccc2OC1)NC1CCCC1", "Potency": "inactive"}
{"smiles": "COc1ccc(S(=O)(=O)Nc2cccc(NC(C)=O)c2)cc1", "Potency": "inconclusive [inhibitor, full curve, poor fit]"}
{"smiles": "CCCC(C(=O)NC1CCCC1)N(C(=O)Cn1nnc(-c2ccc(C)o2)n1)C1CCCC1", "note": "(stereo unspecified)", "Potency": "inactive"}
{"smiles": "COC(=O)c1c(NC(=O)c2ccc([N+](=O)[O-])o2)sc2c1CCN(C(C)C)C2", "Potency": "inconclusive [inhibitor, full curve, poor fit]"}
{"smiles": "CCc1ccc(NC(=O)CSCCO)cc1", "Potency": "inactive"}
{"smiles": "COc1ccccc1C(=O)NCCC(=O)NC1CCCC(C)C1C", "note": "(stereo unspecified)", "Potency": "inconclusive [inhibitor, full curve, poor fit]"}
{"smiles": "COc1cccc(-c2nnn(CC(=O)N3CCCCC3)n2)c1", "Potency": "inactive"}
{"smiles": "O=C(Nc1cccc(NC(=O)C2CC2)n1)C1CC1", "Potency": "inactive"}
{"smiles": "Cc1ccc(C)c(CN2C(=O)CSc3ccc(C(=O)NCCN4CCOCC4)cc32)c1", "Potency": "inconclusive [inhibitor, single point]"}
{"smiles": "CC(C)C12CN3CC(C(C)C)(CN(C1)C3c1ccco1)C2=O", "note": "(stereo unspecified)", "Potency": "inconclusive [inhibitor, partial curve, poor fit]"}
{"smiles": "CC(C)c1ccc(CNc2cc(N3CCCC3)ccc2[N+](=O)[O-])cc1", "Potency": "inconclusive [inhibitor, partial curve, poor fit]"}
{"smiles": "Oc1cccc(-c2nc3ncccn3c2Nc2cccc(C(F)(F)F)c2)c1", "Potency": "inactive"}
{"smiles": "CCC(C(=O)Nc1cccnc1Cl)c1ccccc1", "note": "(stereo unspecified)", "Potency": "inconclusive [inhibitor, full curve, poor fit]"}
{"smiles": "CC(C)Oc1ccc(/C=C(/NC(=O)c2ccccc2)C(=O)NC(Cc2ccccc2)C(=O)O)cc1", "note": "(stereo unspecified)", "Potency": "inconclusive [inhibitor, full curve, poor fit]"}
{"smiles": "COc1cc(NC(=O)COC(=O)Cn2cnc3c2c(=O)n(C)c(=O)n3C)cc(OC)c1", "Potency": "inconclusive [inhibitor, partial curve, poor fit]"}
{"smiles": "Cc1ccc2nc(SCC(=O)Nc3cccc([N+](=O)[O-])c3)[nH]c2c1", "Potency": "inconclusive [inhibitor, partial curve, poor fit]"}
{"smiles": "CCOC(=O)c1cnc2ccccc2c1NCCO", "Potency": "inconclusive [inhibitor, single point]"}
{"smiles": "CSCCC(NC(=O)c1ccccc1Br)C(=O)NNC(=O)c1ccco1", "note": "(stereo unspecified)", "Potency": "inconclusive [inhibitor, partial curve]"}
{"smiles": "COc1ccc(CNC(=O)CCCCCn2c(=O)[nH]c3ccccc3c2=O)cc1", "Potency": "inactive"}
{"smiles": "COc1cc(NC(=O)C2CCCN(S(=O)(=O)c3ccc4c(c3)oc(=O)n4C)C2)cc(OC)c1", "note": "(stereo unspecified)", "Potency": "inconclusive [inhibitor, full curve, poor fit]"}
{"smiles": "CCN(CC)S(=O)(=O)c1ccc2c(c1)N(CC(=O)Nc1ccc(F)cc1F)C(=O)C1CCCN21", "note": "(stereo unspecified)", "Potency": "inactive"}
{"smiles": "O=C1NC(=O)N(Cc2ccccc2Cl)C(=O)/C1=C/N1CCOCC1", "Potency": "inconclusive [inhibitor, partial curve, poor fit]"}
{"smiles": "C=CCn1c(SCC(=O)NCC(c2ccccc2)N(C)C)nnc1C1CCCCC1", "note": "(stereo unspecified)", "Potency": "inconclusive [inhibitor, single point]"}
{"smiles": "COc1ccccc1C(=O)C1CCCN(C(=O)c2ccco2)C1", "note": "(stereo unspecified)", "Potency": "inconclusive [inhibitor, full curve, poor fit]"}
{"smiles": "CCOc1cc2[nH]c(=S)n(CCCOC)c(=O)c2cc1OCC", "Potency": "inactive"}
{"smiles": "CCCS(=O)(=O)NCCc1cc2ccc(OC)cc2[nH]c1=O", "Potency": "inconclusive [inhibitor, full curve, poor fit]"}
{"smiles": "COc1ccccc1NC(=O)Cn1c(=O)n(-c2ccccc2Cl)c(=O)c2sc3ccccc3c21", "Potency": "inactive"}
{"smiles": "O=C(CCn1c(=S)[nH]c2ccccc2c1=O)N1CCOCC1", "Potency": "inconclusive [inhibitor, full curve]"}
{"smiles": "Cc1ccc(-n2c(SCC(=O)Nc3ccc(Cl)cc3)nc(O)cc2=O)cc1", "Potency": "inactive"}
{"smiles": "c1ccc(C2CC3CC4(CCCC4)N2O3)cc1", "note": "(stereo unspecified)", "Potency": "inconclusive [inhibitor, full curve, poor fit]"}
{"smiles": "O=C(OCC(=O)C12CC3CC(CC(C3)C1)C2)c1cccnc1Cl", "Potency": "inconclusive [inhibitor, partial curve]"}
{"smiles": "Cc1ccc(C)c(NS(=O)(=O)c2ccc(-c3cnc(C4CC4)o3)cc2)c1", "Potency": "inactive"}
{"smiles": "CC(C)OCCCNC(=O)c1ccncc1", "Potency": "inconclusive [inhibitor, full curve, poor fit]"}
{"smiles": "O=c1c2ccccc2nc(/C=C/c2ccc([N+](=O)[O-])cc2)n1CCCO", "Potency": "inconclusive [inhibitor, partial curve, poor fit]"}
{"smiles": "CCOC(=O)N1CCN(C(=O)c2ccc3c(=O)n(Cc4ccccc4OC)c(=S)[nH]c3c2)CC1", "Potency": "inconclusive [inhibitor, full curve, poor fit]"}
{"smiles": "COc1ccc(Br)cc1CNC(=O)CCCn1c(=O)c2cccn2c2cccnc21", "Potency": "inactive"}
{"smiles": "CC(C)CN1C(=O)C(=O)N(CC(=O)NCc2ccc3c(c2)OCO3)C1=O", "Potency": "inconclusive [inhibitor, full curve, poor fit]"}
{"smiles": "CC(=O)c1c(N2CCC(C(N)=O)CC2)nc(=S)n(-c2ccccc2)c1C", "Potency": "inconclusive [inhibitor, full curve]"}
{"smiles": "CSCCC(NC(=O)c1ccccc1)C(=O)N/N=C(\\C)Cc1ccccc1", "note": "(stereo unspecified)", "Potency": "inconclusive [inhibitor, full curve, poor fit]"}
{"smiles": "COc1ccc(C2C=C(c3ccc(C)cc3)Nc3c(C(=O)Nc4ccccc4)cnn32)cc1", "note": "(stereo unspecified)", "Potency": "inactive"}
{"smiles": "CC(=O)Nc1ccc(NC(=O)C(C)OC(=O)CC2CCCCC2)cc1", "note": "(stereo unspecified)", "Potency": "inconclusive [inhibitor, single point]"}
{"smiles": "Cc1cccc(N2CCN(C(=O)c3ccc4ncsc4c3)CC2)c1C", "Potency": "inactive"}
{"smiles": "O=C(CSc1nnc(-c2cccc(F)c2)o1)Nc1nncs1", "Potency": "inconclusive [inhibitor, single point]"}
{"smiles": "COc1ccc(CNC(=O)C(c2cccc(C)c2)N(C(=O)c2csnn2)C2CC2)cc1", "note": "(stereo unspecified)", "Potency": "inconclusive [inhibitor, full curve]"}
{"smiles": "O=C(CSc1c2c(nc3ccc(Cl)cc13)CCCC2)NCc1ccco1", "Potency": "inconclusive [inhibitor, full curve, poor fit]"}
{"smiles": "CCOC(=O)CSc1nnc(-c2nnc(SCC(=O)OCC)n2CC)n1CC", "Potency": "inconclusive [inhibitor, partial curve]"}
{"smiles": "CCSc1ccccc1C(=O)n1nnc2ccccc21", "Potency": "inconclusive [inhibitor, full curve, poor fit]"}
{"smiles": "CC(Oc1cccc(Cl)c1)C(=O)Nc1cc(S(=O)(=O)N2CCOCC2)ccc1N1CCCCC1", "note": "(stereo unspecified)", "Potency": "inconclusive [inhibitor, full curve]"}
